Experimental data as given in article PMC9106359.
Results are given in words; binding and its absence hold for the method and conditions named. Binding seen in cells or lysates may run through a third protein. Some results given as binding are weak or reduced against the parent protein; the word gives no strength. For some assays here: Tags and fused reporters may be left off the sequences shown. Blank lines part the entries; values can stand above or below the molecule they belong to.

Amino acid sequences for entries named in this document (tags omitted).
UniProt P70398: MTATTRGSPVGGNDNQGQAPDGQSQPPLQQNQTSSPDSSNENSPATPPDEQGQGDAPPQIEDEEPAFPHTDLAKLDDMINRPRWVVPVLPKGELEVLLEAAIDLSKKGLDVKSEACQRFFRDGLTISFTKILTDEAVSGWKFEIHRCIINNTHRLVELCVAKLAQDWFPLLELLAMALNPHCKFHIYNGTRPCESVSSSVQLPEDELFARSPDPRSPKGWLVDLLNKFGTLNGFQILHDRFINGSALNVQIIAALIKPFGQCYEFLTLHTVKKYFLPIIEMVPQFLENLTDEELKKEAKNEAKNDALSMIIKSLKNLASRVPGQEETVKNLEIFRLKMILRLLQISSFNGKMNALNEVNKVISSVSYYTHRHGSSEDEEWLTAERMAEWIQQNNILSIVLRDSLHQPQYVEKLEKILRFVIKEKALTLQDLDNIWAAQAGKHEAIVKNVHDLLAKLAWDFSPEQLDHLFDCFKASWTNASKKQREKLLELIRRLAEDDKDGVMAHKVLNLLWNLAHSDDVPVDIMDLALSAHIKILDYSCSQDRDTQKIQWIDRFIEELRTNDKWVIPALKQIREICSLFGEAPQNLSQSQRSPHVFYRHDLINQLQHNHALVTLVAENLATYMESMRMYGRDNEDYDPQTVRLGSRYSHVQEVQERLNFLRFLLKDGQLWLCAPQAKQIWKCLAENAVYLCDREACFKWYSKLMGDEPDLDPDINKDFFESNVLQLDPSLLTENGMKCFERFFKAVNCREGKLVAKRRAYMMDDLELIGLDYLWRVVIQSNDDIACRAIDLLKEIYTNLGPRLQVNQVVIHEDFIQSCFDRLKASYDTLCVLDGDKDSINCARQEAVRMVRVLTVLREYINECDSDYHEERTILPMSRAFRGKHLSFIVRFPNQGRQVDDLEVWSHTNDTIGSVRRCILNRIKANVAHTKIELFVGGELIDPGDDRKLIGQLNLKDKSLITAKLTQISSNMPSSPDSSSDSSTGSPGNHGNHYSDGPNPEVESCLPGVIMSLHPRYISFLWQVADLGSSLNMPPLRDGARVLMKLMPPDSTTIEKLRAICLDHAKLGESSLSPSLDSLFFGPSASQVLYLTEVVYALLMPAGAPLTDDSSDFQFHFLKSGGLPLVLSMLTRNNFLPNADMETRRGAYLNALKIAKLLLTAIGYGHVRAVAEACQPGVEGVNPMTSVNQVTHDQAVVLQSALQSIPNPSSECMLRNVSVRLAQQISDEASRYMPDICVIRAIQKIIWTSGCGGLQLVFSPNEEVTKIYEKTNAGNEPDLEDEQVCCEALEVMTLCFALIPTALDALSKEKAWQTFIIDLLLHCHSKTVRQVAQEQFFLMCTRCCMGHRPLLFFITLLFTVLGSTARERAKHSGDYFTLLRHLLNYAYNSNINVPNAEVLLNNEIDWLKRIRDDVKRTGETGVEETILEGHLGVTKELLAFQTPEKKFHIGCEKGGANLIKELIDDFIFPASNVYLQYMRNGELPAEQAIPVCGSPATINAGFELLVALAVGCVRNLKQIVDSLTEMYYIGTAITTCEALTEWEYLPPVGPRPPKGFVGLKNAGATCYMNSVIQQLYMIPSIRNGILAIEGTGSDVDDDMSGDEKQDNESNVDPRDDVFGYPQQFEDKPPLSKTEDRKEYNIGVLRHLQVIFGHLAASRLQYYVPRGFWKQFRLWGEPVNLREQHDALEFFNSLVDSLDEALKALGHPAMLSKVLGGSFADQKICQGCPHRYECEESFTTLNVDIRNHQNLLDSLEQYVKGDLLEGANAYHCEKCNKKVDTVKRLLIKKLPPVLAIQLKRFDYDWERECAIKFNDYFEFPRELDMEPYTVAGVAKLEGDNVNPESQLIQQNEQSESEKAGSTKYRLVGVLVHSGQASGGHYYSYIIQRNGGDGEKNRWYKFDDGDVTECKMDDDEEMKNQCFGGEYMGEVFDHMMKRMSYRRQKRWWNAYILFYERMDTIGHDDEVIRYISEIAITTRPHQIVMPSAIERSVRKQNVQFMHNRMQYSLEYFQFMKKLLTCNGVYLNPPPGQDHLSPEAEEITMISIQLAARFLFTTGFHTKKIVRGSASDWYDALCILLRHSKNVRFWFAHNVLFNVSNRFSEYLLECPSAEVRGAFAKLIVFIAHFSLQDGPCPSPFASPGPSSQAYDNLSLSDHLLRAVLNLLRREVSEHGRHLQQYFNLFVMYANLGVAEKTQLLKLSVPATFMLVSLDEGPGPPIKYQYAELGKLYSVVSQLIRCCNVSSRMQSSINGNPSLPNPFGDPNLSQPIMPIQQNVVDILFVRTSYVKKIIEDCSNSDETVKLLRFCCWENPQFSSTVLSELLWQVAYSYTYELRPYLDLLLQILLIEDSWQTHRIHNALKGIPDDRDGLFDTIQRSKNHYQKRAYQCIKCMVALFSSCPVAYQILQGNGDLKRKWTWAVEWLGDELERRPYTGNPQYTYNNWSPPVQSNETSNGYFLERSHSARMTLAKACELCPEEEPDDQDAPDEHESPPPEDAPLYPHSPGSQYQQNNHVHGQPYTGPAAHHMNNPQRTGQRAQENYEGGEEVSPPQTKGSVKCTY
UniProt P41233: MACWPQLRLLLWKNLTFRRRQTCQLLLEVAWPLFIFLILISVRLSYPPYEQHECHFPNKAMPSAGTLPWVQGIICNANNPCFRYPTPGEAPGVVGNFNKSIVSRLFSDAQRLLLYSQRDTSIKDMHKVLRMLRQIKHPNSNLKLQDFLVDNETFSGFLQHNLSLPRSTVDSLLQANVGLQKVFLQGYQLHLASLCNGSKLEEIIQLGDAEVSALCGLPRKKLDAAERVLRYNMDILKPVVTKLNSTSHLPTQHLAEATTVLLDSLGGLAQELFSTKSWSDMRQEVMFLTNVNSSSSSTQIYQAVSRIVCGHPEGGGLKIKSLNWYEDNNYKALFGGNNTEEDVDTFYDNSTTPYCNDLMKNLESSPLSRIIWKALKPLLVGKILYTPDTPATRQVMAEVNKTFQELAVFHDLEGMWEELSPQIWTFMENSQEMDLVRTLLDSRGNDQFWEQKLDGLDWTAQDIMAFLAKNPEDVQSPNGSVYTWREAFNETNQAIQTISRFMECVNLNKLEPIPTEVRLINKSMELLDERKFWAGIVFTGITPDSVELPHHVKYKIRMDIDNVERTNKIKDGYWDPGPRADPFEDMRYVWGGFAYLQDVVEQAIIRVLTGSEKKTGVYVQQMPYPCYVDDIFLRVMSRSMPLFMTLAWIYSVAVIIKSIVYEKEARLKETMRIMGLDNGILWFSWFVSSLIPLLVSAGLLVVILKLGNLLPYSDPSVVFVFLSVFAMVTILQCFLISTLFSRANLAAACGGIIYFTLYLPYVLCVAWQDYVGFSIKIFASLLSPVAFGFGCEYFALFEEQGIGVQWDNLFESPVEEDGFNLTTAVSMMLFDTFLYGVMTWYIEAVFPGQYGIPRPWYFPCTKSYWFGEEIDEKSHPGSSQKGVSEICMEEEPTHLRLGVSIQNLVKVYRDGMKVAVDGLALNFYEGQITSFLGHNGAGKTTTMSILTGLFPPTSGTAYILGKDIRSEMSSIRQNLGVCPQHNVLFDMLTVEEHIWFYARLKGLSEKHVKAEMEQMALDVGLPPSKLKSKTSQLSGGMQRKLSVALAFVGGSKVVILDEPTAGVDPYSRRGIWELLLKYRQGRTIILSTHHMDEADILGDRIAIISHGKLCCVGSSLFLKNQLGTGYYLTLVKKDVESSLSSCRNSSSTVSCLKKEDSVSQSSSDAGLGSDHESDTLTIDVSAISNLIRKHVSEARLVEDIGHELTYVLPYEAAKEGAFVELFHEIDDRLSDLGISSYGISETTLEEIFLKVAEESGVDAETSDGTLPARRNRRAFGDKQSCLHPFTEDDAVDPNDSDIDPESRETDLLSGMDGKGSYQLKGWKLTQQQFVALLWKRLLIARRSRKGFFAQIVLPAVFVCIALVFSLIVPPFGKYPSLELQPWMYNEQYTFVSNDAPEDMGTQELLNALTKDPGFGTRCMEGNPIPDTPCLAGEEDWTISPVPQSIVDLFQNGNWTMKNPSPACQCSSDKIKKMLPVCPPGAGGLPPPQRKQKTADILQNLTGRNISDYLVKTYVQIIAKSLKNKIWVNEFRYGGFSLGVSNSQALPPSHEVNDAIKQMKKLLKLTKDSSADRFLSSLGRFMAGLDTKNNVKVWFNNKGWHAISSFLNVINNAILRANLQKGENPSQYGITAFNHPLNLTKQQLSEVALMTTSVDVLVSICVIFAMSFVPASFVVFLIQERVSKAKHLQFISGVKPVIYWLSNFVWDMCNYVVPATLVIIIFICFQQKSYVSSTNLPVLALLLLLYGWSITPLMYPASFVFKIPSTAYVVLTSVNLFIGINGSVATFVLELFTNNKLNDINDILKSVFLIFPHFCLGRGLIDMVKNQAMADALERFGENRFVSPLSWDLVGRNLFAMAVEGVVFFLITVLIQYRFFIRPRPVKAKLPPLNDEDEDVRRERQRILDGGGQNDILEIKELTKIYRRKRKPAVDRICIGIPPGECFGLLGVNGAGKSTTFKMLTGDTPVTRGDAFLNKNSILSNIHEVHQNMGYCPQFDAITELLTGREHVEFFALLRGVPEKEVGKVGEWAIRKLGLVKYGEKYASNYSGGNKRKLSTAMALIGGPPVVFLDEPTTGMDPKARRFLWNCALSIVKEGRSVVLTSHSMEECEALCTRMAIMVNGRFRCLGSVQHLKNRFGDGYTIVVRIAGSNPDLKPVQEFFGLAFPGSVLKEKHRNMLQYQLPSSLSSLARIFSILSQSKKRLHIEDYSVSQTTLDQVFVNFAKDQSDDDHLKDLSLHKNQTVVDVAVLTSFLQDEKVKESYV
UniProt Q9EQ09: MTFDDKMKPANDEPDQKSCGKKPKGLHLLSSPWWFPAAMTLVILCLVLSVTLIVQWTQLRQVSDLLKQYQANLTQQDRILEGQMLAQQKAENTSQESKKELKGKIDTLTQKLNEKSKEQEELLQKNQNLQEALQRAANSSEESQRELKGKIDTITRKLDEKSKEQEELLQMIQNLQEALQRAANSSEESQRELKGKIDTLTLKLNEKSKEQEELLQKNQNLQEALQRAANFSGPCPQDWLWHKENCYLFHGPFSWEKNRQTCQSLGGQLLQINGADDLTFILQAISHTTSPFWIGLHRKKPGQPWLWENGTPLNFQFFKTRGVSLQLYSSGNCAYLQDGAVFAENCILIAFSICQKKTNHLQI
UniProt Q08857: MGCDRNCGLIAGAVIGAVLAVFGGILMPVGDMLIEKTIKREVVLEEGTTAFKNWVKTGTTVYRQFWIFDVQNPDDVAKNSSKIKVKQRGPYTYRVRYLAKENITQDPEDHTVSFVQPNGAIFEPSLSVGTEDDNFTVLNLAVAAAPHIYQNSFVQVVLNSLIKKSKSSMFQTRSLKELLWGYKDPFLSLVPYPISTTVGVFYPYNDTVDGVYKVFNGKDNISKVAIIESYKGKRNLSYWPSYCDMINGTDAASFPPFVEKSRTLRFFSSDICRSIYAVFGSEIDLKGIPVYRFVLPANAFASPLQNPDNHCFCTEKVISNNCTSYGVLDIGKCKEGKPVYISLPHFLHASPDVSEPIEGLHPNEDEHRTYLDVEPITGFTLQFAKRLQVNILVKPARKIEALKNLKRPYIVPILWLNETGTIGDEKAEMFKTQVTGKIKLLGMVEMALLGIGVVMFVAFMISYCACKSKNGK

Assays:
[1] = target: ubiquitin-specific peptidase 9 X-linked (USP9X), mouse, endogenous (mouse (endogenous in BMDMs and RAW264.7)) (UniProt P70398); experiment: co-IP; whole cell lysates of BMDMs immunoprecipitated with anti-USP9X or rabbit IgG antibody, Western blot; endogenous proteins
[2] = target: T1, class A1 scavenger receptor (SR-A1), mouse, endogenous (mouse (endogenous in BMDMs and RAW264.7)) (UniProt P30204); experiment: co-IP; whole cell lysates of RAW264.7 cells immunoprecipitated with anti-USP9X/SR-A1 or rabbit/mouse IgG antibody, immunoblotted with anti-SR-A1 or USP9X antibody; endogenous proteins
T1 sequence: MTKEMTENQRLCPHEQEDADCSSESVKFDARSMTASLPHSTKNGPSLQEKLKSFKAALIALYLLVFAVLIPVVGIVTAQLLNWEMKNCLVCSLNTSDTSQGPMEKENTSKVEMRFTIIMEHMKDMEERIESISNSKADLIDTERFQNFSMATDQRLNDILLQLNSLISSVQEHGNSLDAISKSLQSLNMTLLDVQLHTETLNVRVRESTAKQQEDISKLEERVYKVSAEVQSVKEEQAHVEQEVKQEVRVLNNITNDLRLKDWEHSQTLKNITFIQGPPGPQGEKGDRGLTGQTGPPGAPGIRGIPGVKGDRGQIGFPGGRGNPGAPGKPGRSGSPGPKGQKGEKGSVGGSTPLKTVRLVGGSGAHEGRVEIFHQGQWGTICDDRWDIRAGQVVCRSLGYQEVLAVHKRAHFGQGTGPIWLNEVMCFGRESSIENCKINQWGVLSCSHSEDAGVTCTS

[3] = target: ubiquitin-specific peptidase 9 X-linked (USP9X), mouse, endogenous (mouse (endogenous in BMDMs and RAW264.7)) (UniProt P70398); experiment: co-IP; BMDMs treated with peptide-I (20 μM) for 24 hours; IP with antibody against USP9X or IgG
[4] = target: ubiquitin-specific peptidase 9 X-linked (USP9X), mouse, endogenous (mouse (endogenous in BMDMs and RAW264.7)) (UniProt P70398); experiment: co-IP; BMDMs treated with control peptide (peptide-C, 20 μM) for 24 hours; IP with antibody against USP9X or IgG
[5] = target: ubiquitin-specific peptidase 9 X-linked (USP9X), mouse, endogenous (mouse (endogenous in BMDMs and RAW264.7)) (UniProt P70398); experiment: co-IP; whole cell lysates of RAW264.7 cells immunoprecipitated with anti-USP9X/SR-A1 or rabbit/mouse IgG antibody, immunoblotted with anti-SR-A1 or USP9X antibody; endogenous proteins
FLAG-USP9X = FLAG-USP9X (UniProt Q93008); experiment: co-IP; HeLa cells stably expressing doxycycline-induced FLAG-USP9X and cotransfected with MYC-SR-A1
[6] = target: ubiquitin-specific peptidase 9 X-linked (USP9X), human, endogenous (human (endogenous in HMDMs)) (UniProt Q93008); experiment: proximity ligation; in situ PLA with proximity probes against USP9X and SR-A1 in HMDMs; negative technical control omitting one of the primary antibodies

Molecule: ubiquitin-specific peptidase 9 X-linked (USP9X), mouse, endogenous (from UniProt P70398 1-2559) (enzyme)
- binding [2]: binds

B1: class A1 scavenger receptor (SR-A1), mouse, endogenous (receptor, UniProt P30204 1-458)
chain: MTKEMTENQRLCPHEQEDADCSSESVKFDARSMTASLPHSTKNGPSLQEKLKSFKAALIALYLLVFAVLIPVVGIVTAQLLNWEMKNCLVCSLNTSDTSQGPMEKENTSKVEMRFTIIMEHMKDMEERIESISNSKADLIDTERFQNFSMATDQRLNDILLQLNSLISSVQEHGNSLDAISKSLQSLNMTLLDVQLHTETLNVRVRESTAKQQEDISKLEERVYKVSAEVQSVKEEQAHVEQEVKQEVRVLNNITNDLRLKDWEHSQTLKNITFIQGPPGPQGEKGDRGLTGQTGPPGAPGIRGIPGVKGDRGQIGFPGGRGNPGAPGKPGRSGSPGPKGQKGEKGSVGGSTPLKTVRLVGGSGAHEGRVEIFHQGQWGTICDDRWDIRAGQVVCRSLGYQEVLAVHKRAHFGQGTGPIWLNEVMCFGRESSIENCKINQWGVLSCSHSEDAGVTCTS
- binding [3]: no binding (condition: with peptide-I (20 μM, 24 hours))
- binding [4]: binds
- binding [1]: binds
- binding [5]: binds

B2: MYC-SR-A1 (in HeLa cells) (receptor, UniProt P30204 1-458)
chain: MTKEMTENQRLCPHEQEDADCSSESVKFDARSMTASLPHSTKNGPSLQEKLKSFKAALIALYLLVFAVLIPVVGIVTAQLLNWEMKNCLVCSLNTSDTSQGPMEKENTSKVEMRFTIIMEHMKDMEERIESISNSKADLIDTERFQNFSMATDQRLNDILLQLNSLISSVQEHGNSLDAISKSLQSLNMTLLDVQLHTETLNVRVRESTAKQQEDISKLEERVYKVSAEVQSVKEEQAHVEQEVKQEVRVLNNITNDLRLKDWEHSQTLKNITFIQGPPGPQGEKGDRGLTGQTGPPGAPGIRGIPGVKGDRGQIGFPGGRGNPGAPGKPGRSGSPGPKGQKGEKGSVGGSTPLKTVRLVGGSGAHEGRVEIFHQGQWGTICDDRWDIRAGQVVCRSLGYQEVLAVHKRAHFGQGTGPIWLNEVMCFGRESSIENCKINQWGVLSCSHSEDAGVTCTS
- binding (FLAG-USP9X): binds

B3: class A1 scavenger receptor (SR-A1), human, endogenous (receptor, UniProt P21757 1-451)
chain: MEQWDHFHNQQEDTDSCSESVKFDARSMTALLPPNPKNSPSLQEKLKSFKAALIALYLLVFAVLIPLIGIVAAQLLKWETKNCSVSSTNANDITQSLTGKGNDSEEEMRFQEVFMEHMSNMEKRIQHILDMEANLMDTEHFQNFSMTTDQRFNDILLQLSTLFSSVQGHGNAIDEISKSLISLNTTLLDLQLNIENLNGKIQENTFKQQEEISKLEERVYNVSAEIMAMKEEQVHLEQEIKGEVKVLNNITNDLRLKDWEHSQTLRNITLIQGPPGPPGEKGDRGPTGESGPRGFPGPIGPPGLKGDRGAIGFPGSRGLPGYAGRPGNSGPKGQKGEKGSGNTLTPFTKVRLVGGSGPHEGRVEILHSGQWGTICDDRWEVRVGQVVCRSLGYPGVQAVHKAAHFGQGTGPIWLNEVFCFGRESSIEECKIRQWGTRACSHSEDAGVTCTL
- binding [6]: binds

B4: SR-B1, mouse, endogenous (receptor, UniProt Q61009 1-509)
chain: MGGSSRARWVALGLGALGLLFAALGVVMILMVPSLIKQQVLKNVRIDPSSLSFGMWKEIPVPFYLSVYFFEVVNPNEVLNGQKPVVRERGPYVYREFRQKVNITFNDNDTVSFVENRSLHFQPDKSHGSESDYIVLPNILVLGGSILMESKPVSLKLMMTLALVTMGQRAFMNRTVGEILWGYDDPFVHFLNTYLPDMLPIKGKFGLFVGMNNSNSGVFTVFTGVQNFSRIHLVDKWNGLSKIDYWHSEQCNMINGTSGQMWAPFMTPESSLEFFSPEACRSMKLTYNESRVFEGIPTYRFTAPDTLFANGSVYPPNEGFCPCRESGIQNVSTCRFGAPLFLSHPHFYNADPVLSEAVLGLNPNPKEHSLFLDIHPVTGIPMNCSVKMQLSLYIKSVKGIGQTGKIEPVVLPLLWFEQSGAMGGKPLSTFYTQLVLMPQVLHYAQYVLLGLGGLLLLVPIICQLRSQEKCFLFWSGSKKGSQDKEAIQAYSESLMSPAAKGTVLQEAKL
- binding [1]: no binding

The remaining lines, values ahead:

- binding [1]: no binding
Molecule: ATP-binding cassette transporter A1 (ABCA1), mouse, endogenous (from UniProt P41233 1-2261)

- binding [1]: no binding
Molecule: LOX-1, mouse, endogenous (from UniProt Q9EQ09 1-363) (receptor)

- binding [1]: no binding
Molecule: CD36, mouse, endogenous (from UniProt Q08857 1-472) (receptor)
